The values below come from publication PMC5700166.

This is a selection; strong and weak results do not stand in their true shares. The list includes weakly bound sequences.

For this assay, the target named is T1, GST-Ap-NF-kB RHD (UniProt A0A913YAJ5).
T1 sequence: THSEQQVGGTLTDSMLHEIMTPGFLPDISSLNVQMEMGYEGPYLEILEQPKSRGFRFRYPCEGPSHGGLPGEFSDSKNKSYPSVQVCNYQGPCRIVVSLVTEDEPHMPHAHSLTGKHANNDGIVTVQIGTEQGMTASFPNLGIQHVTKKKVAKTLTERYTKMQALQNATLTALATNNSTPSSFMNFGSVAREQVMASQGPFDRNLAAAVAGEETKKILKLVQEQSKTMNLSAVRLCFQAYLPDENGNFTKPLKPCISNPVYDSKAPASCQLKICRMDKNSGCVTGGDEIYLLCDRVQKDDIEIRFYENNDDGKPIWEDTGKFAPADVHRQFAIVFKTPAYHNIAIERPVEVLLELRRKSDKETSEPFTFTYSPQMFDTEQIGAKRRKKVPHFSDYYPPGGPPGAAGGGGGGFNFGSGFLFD
Kind of assay: protein-binding microarray (PBM). To be noted: PBM: ~300 nM protein, 6 mM HEPES pH 7.8, 80 mM KCl, 0.5 mM EDTA, 0.5 mM EGTA, 6% glycerol, 35 ng/ul poly-dIdC, 1% milk, 1 h, room temperature; Ap Aiptasia and Nv Nematostella (sea anemones) / Co Capsaspora / Aq Amphimedon (sponge) / Dm Drosophila / Hu human; RHD is the Rel homology domain; high values mean tight binding; most listed sequences are background and not binding sites; double strand, one strand shown.
Sequence “CCGATTAACATCAGGAATATACCTGATGTTAATCGGGTCTTGATTCGCTTGACGCTGCTG” showed a binding signal of 0.131 z-score.
As for “CCGATTAACATCAGGGAGTTCACTGATGTTAATCGGGTCTTGATTCGCTTGACGCTGCTG”, the figure is 2.23 z-score; as for “CCGATTAACATCAGGGGGTACACTGATGTTAATCGGGTCTTGATTCGCTTGACGCTGCTG”, 4.19 z-score.
With “CCGATTAACATCAGAAATCCCGATGATGTTAATCGGGTCTTGATTCGCTTGACGCTGCTG” the figure was 3.14 z-score; with “CCGATTAACATCAGAAAATACCATGATGTTAATCGGGTCTTGATTCGCTTGACGCTGCTG”, 0.863 z-score.
As for “CCGATTAACATCAGAGGATTCCCTGATGTTAATCGGGTCTTGATTCGCTTGACGCTGCTG”, the binding signal came to 3.72 z-score.
As for “CCGATTAACATCACGGAATTACCTGATGTTAATCGGGTCTTGATTCGCTTGACGCTGCTG”, the figure is 1.02 z-score; as for “CCGATTAACATCATTTCCCAAAATGATGTTAATCGGGTCTTGATTCGCTTGACGCTGCTG”, -0.136 z-score.
As for “CCGATTAACATCAGGGGGGGAAATGATGTTAATCGGGTCTTGATTCGCTTGACGCTGCTG”, the figure is 6.79 z-score; as for “CCGATTAACATCAGGGAAAATACTGATGTTAATCGGGTCTTGATTCGCTTGACGCTGCTG”, 3.76 z-score; as for “CCGATTAACATCACGGGATTACCTGATGTTAATCGGGTCTTGATTCGCTTGACGCTGCTG”, 3.75 z-score.
As for “CCGATTAACATCACGGGTATTCCTGATGTTAATCGGGTCTTGATTCGCTTGACGCTGCTG”, the figure is 4.85 z-score; as for “CCGATTAACATCAGACATTCCCCTGATGTTAATCGGGTCTTGATTCGCTTGACGCTGCTG”, 7.03 z-score.
With “CCGATTAACATCAAAAAAGACCCTGATGTTAATCGGGTCTTGATTCGCTTGACGCTGCTG”, the binding signal was 2.93 z-score.
As to “CCGATTAACATCACCGTCCCCCCTGATGTTAATCGGGTCTTGATTCGCTTGACGCTGCTG”, the binding signal is 4.94 z-score.
Sequence “CCGATTAACATCACCCATGGGAATGATGTTAATCGGGTCTTGATTCGCTTGACGCTGCTG” had a binding signal of 0.782 z-score.
With “CCGATTAACATCACGGTTATTCCTGATGTTAATCGGGTCTTGATTCGCTTGACGCTGCTG” the figure was 1.09 z-score; with “CCGATTAACATCAGGGAATGCCCTGATGTTAATCGGGTCTTGATTCGCTTGACGCTGCTG”, 5.58 z-score; with “CCGATTAACATCAGGCAACCCCCTGATGTTAATCGGGTCTTGATTCGCTTGACGCTGCTG”, 5.96 z-score.
“CCGATTAACATCAGGGGGATTAATGATGTTAATCGGGTCTTGATTCGCTTGACGCTGCTG”: the binding signal came out at 6.25 z-score.
With “CCGATTAACATCAGAAACCCCCCTGATGTTAATCGGGTCTTGATTCGCTTGACGCTGCTG” the figure was 9.47 z-score; with “CCGATTAACATCAGAAAATGCCCTGATGTTAATCGGGTCTTGATTCGCTTGACGCTGCTG”, 1.93 z-score.
With “CCGATTAACATCACCGGAAATTCTGATGTTAATCGGGTCTTGATTCGCTTGACGCTGCTG” the figure was 0.664 z-score; with “CCGATTAACATCAGCAATTCCCCTGATGTTAATCGGGTCTTGATTCGCTTGACGCTGCTG”, 7.03 z-score.
With “CCGATTAACATCAGGGAATGTACTGATGTTAATCGGGTCTTGATTCGCTTGACGCTGCTG” the figure was 2.21 z-score; with “CCGATTAACATCAGGGACATCCCTGATGTTAATCGGGTCTTGATTCGCTTGACGCTGCTG”, 5.51 z-score; with “CCGATTAACATCACATGTGGGAATGATGTTAATCGGGTCTTGATTCGCTTGACGCTGCTG”, 0.772 z-score.
“CCGATTAACATCAGGAGAGCCCCTGATGTTAATCGGGTCTTGATTCGCTTGACGCTGCTG” showed a binding signal of 3.65 z-score.
With “CCGATTAACATCACGGAGTTCCCTGATGTTAATCGGGTCTTGATTCGCTTGACGCTGCTG” the figure was 2.6 z-score; with “CCGATTAACATCAAATAGTCCCCTGATGTTAATCGGGTCTTGATTCGCTTGACGCTGCTG”, 7.11 z-score; with “CCGATTAACATCAATATCCCCCCTGATGTTAATCGGGTCTTGATTCGCTTGACGCTGCTG”, 7.34 z-score.
With “CCGATTAACATCAGGGAGGTACCTGATGTTAATCGGGTCTTGATTCGCTTGACGCTGCTG” the figure was 3.34 z-score; with “CCGATTAACATCACAAAAGTCCCTGATGTTAATCGGGTCTTGATTCGCTTGACGCTGCTG”, 7.21 z-score.
The sequence “CCGATTAACATCAAACCCCCCCGTGATGTTAATCGGGTCTTGATTCGCTTGACGCTGCTG” gave a binding signal of 6.76 z-score.
In turn, “CCGATTAACATCAGGGGGGACCCTGATGTTAATCGGGTCTTGATTCGCTTGACGCTGCTG” returned a binding signal of 6.34 z-score.
“CCGATTAACATCAGGGCAGTACCTGATGTTAATCGGGTCTTGATTCGCTTGACGCTGCTG”: the binding signal came out at 0.753 z-score.
In turn, “CCGATTAACATCAGGGAAATCACTGATGTTAATCGGGTCTTGATTCGCTTGACGCTGCTG” registered a binding signal of 3.41 z-score.
